A collection of fitness landscapes (doi:10.1038/s41467-024-54723-y)
The full ranking holds about 18,000 sequences; the median of “TetR repression strength (sort-seq, GFP reporter)” is about 0.23, and the highest 2% start at about 0.68. The list shows a part of the results.

What follows are sequences tested against TetR (class B, Tn10) (UniProt P04483) (assay: TetR repression strength (sort-seq, GFP reporter) (relative to tetO2 = 1); higher = stronger repression). Details: E. coli.
Method in brief: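 Escherichia coli SIG10-MAX cells carried a low-copy plasmid library in which eight operator positions were randomized between a constitutive promoter and sfGFP, and TetR was expressed constitutively. After 5 h of growth at 37 °C in LB with 50 µg/mL chloramphenicol, 10^6 cells were FACS-sorted into 13 fluorescence bins, and each bin was Illumina-sequenced. Repression strength was the top bin index plus one minus the read-weighted mean bin, divided by the value for the unaltered operator. Across three independent transformations, only library members with ≥30 reads in every replicate and a CV ≤0.5 were averaged.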

Chain of UniProt P04483 (P04483 whole entry): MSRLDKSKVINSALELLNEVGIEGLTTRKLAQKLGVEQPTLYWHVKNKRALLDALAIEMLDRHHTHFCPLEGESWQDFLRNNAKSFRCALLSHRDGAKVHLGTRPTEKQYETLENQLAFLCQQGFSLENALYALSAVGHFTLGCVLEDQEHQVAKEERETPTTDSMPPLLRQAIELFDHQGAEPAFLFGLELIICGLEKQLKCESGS

| Sequence | TetR repression strength |
| --- | --- |
| TCCCTATTAGTGGGCGAGA | 0.229 |
| TCCCTTGAAGTGGACGAGA | 0.251 |
| TCCCGTGAAGTACGCGAGA | 0.217 |
| TCCCATGTAGTTATTGAGA | 0.196 |
| TCCCTAGGAGTGCTCGAGA | 0.395 |
| TCCCTCGTAGTGAAAGAGA | 0.159 |
| TCCCGTTTAGTTGACGAGA | 0.355 |
| TCCCTGCTAGTCTGAGAGA | 0.24 |
| TCCCTATAAGTTTGAGAGA | 0.415 |
| TCCCATCTAGTCTTAGAGA | 0.359 |
| TCCCGGAGAGTATAAGAGA | 0.289 |
| TCCCACAAAGTAATTGAGA | 0.271 |
| TCCCAGGCAGTTGGTGAGA | 0.258 |
| TCCCCAATAGTGGCGGAGA | 0.153 |
| TCCCCACTAGTGGTCGAGA | 0.233 |
| TCCCTTGTAGTGCTGGAGA | 0.314 |
| TCCCTTATAGTATCCGAGA | 0.358 |
| TCCCTTTCAGTGCCCGAGA | 0.307 |
| TCCCGAGCAGTCGGGGAGA | 0.0869 |
| TCCCGTAAAGTAGCCGAGA | 0 |
| TCCCTTTCAGTCCCCGAGA | 0.359 |
| TCCCCATGAGTGTTCGAGA | 0.25 |
| TCCCGGGCAGTAGCGGAGA | 0.243 |
| TCCCAATGAGTGGCCGAGA | 0.31 |
| TCCCTATGAGTACGGGAGA | 0.485 |
| TCCCTCGAAGTACTGGAGA | 0.203 |

| Sequence | TetR repression strength |
| --- | --- |
| TCCCTGACAGTTACCGAGA | 0.294 |
| TCCCGATGAGTGTGAGAGA | 0.341 |
| TCCCGAGGAGTGTGTGAGA | 0.174 |
| TCCCGAGGAGTAGTTGAGA | 0.196 |
| TCCCCAGGAGTGCAAGAGA | 0.626 |
| TCCCGGTGAGTGCGAGAGA | 0.189 |
| TCCCGTTGAGTAGCGGAGA | 0.29 |
| TCCCGGACAGTTGATGAGA | 0.179 |
| TCCCGATCAGTGTCCGAGA | 0.211 |
| TCCCTGAAAGTGTCGGAGA | 0.066 |
| TCCCGCGTAGTCCGCGAGA | 0.172 |
| TCCCGAACAGTGGATGAGA | 0.37 |
| TCCCGTGGAGTTCTTGAGA | 0.37 |
| TCCCCCGCAGTGCGCGAGA | 0.18 |
| TCCCGCGGAGTGGGCGAGA | 0.271 |
| TCCCGGCGAGTTTGGGAGA | 0.108 |
| TCCCGATCAGTACTTGAGA | 0.0384 |
| TCCCAGATAGTCAGAGAGA | 0.248 |
| TCCCGGTTAGTGATGGAGA | 0.262 |
| TCCCGGGCAGTCAGGGAGA | 0.193 |
| TCCCACTCAGTTAGGGAGA | 0.268 |
| TCCCGGTGAGTCAGCGAGA | 0.305 |
| TCCCCCGCAGTGAACGAGA | 0.519 |
| TCCCTTCGAGTTGTTGAGA | 0.159 |
| TCCCCTAAAGTAAGTGAGA | 0.187 |
| TCCCCTTGAGTCGTTGAGA | 0.312 |

| Sequence | TetR repression strength |
| --- | --- |
| TCCCGTCCAGTGGAAGAGA | 0.288 |
| TCCCGATGAGTTGGGGAGA | 0.13 |
| TCCCTCTAAGTTAGTGAGA | 0.241 |
| TCCCTTTTAGTGCAGGAGA | 0.444 |
| TCCCAGAGAGTACGCGAGA | 0.249 |
| TCCCGATCAGTGTCTGAGA | 0.429 |
| TCCCAAAAAGTGACTGAGA | 0.475 |
| TCCCGGTGAGTGTGGGAGA | 0.166 |
| TCCCCAGAAGTGGGTGAGA | 0.123 |
| TCCCGTACAGTCGACGAGA | 0.415 |
| TCCCTGAGAGTGTTAGAGA | 0.198 |
| TCCCAGACAGTTGCCGAGA | 0.613 |
| TCCCGGTCAGTAGCCGAGA | 0.2 |
| TCCCTGACAGTTCATGAGA | 0.013 |
| TCCCAACTAGTGTGGGAGA | 0.283 |
| TCCCCAATAGTTGTGGAGA | 0.165 |
| TCCCGTCCAGTTTTTGAGA | 0.261 |
| TCCCTGAGAGTCTGTGAGA | 0.0755 |
| TCCCAAGTAGTACAGGAGA | 0.16 |
| TCCCGGGCAGTGGATGAGA | 0.217 |
| TCCCTGGAAGTATAGGAGA | 0.222 |
| TCCCACGTAGTCTCCGAGA | 0.213 |
| TCCCATAAAGTGGGTGAGA | 0.2 |
| TCCCAGGCAGTGCTTGAGA | 0.113 |
| TCCCCGTCAGTAGGCGAGA | 0.243 |
| TCCCAGGAAGTCAGCGAGA | 0.381 |

| Sequence | TetR repression strength |
| --- | --- |
| TCCCGCATAGTCTCGGAGA | 0.13 |
| TCCCCATGAGTCTCGGAGA | 0.139 |
| TCCCTGCAAGTAGCAGAGA | 0.154 |
| TCCCGATTAGTGGGGGAGA | 0.147 |
| TCCCTGGCAGTGCTGGAGA | 0.197 |
| TCCCGTCGAGTCGCGGAGA | 0.24 |
| TCCCAGCCAGTACGCGAGA | 0.0225 |
| TCCCACGGAGTGTATGAGA | 0.116 |
| TCCCTCGAAGTTGGTGAGA | 0.421 |
| TCCCAGTTAGTGACAGAGA | 0.33 |
| TCCCCAAGAGTACGAGAGA | 0.17 |
| TCCCCTATAGTCGCTGAGA | 0.322 |
| TCCCCGTGAGTGAGGGAGA | 0.112 |
| TCCCAGGGAGTGCGTGAGA | 0.123 |
| TCCCTATCAGTGACCGAGA | 0.944 |
| TCCCCAGTAGTGCGGGAGA | 0.478 |
| TCCCAGGCAGTTGTGGAGA | 0.178 |
| TCCCGGTAAGTGTAGGAGA | 0.152 |
| TCCCTTTTAGTGTCGGAGA | 0.233 |
| TCCCTGGTAGTGCGAGAGA | 0.186 |
| TCCCGTGCAGTGATTGAGA | 0.165 |
| TCCCGCGAAGTTACTGAGA | 0.4 |
| TCCCTTATAGTCCTCGAGA | 0.411 |
| TCCCTGAGAGTTTCCGAGA | 0.173 |
